In the assay the test system is NCI-H322M lung. The assay can be described thus: NCI-60 cell line screen, 48 h.

This passage reports GI50 and TGI results from PubChem BioAssay (NCI).

Values joined by “and” are separate entries in the source; they are usually repeats but may differ in a detail not shown here. Equal entries are not always repeated.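 Results reflect a 48-hour exposure of cells in 96-well plates to compound at five concentrations. GI50 marks 50% less growth. TGI is the concentration that stops growth completely.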 Square brackets hold non-standard residues; d marks the D form. Peptide text beside a SMILES is read from it. * marks the point of attachment. ξ: configuration not given here. NMeF = CN[C@@H](Cc1ccccc1)C(=O)O; NMeV = CN[C@H](C(=O)O)C(C)C; ξNMeN = CNC(CC(N)=O)C(=O)O; NMeA = CN[C@@H](C)C(=O)O; ξNMeV = CNC(C(=O)O)C(C)C; Boc = CC(C)(C)OC(=O)* Where only a bound is given, the exact number is not on record here.

Consider `c1ccc(CC(Cc2ccccc2)C2=NCCCN2)cc1`, for which the GI50 was over 100 µM and the TGI was over 100 µM. With `OC(COc1cccc2ccccc12)CN1CCOCC1` (centres undefined), the TGI is over 100 µM. Still for that read-out and setting: the figure for `CC(=O)OCC1OC(Nc2ccc3nc(C)n(-c4ccccc4)c(=O)c3c2)C(OC(C)=O)C(OC(C)=O)C1OC(C)=O` (centres undefined) is over 50 µM. In the case of `C=CCc1cccc2cc(C(=O)NC3CCCCC3)c(=N)oc12`, the TGI came out at 40.8 µM.

Consider `O=C1C(C=NC(=S)c2ccccc2)=C(O)c2ccccc21`, for which the TGI was over 100 µM.

Consider `CC1(C)CC[C@]2(C(=O)Nc3ccccn3)CC[C@]3(C)C(=CC[C@@H]4[C@@]5(C)C/C(=C/c6ccncc6)C(=O)C(C)(C)[C@@H]5CC[C@]43C)[C@@H]2C1`, for which the GI50 was 5.02 µM and the TGI was over 100 µM. Take `CC(=O)NC1C(OCc2ccccc2)OC(CO)C(O)C1OC(C)C(=O)NC(C)C(=O)N[C@@H](CCC(=O)OCCCNC1c2ccccc2Nc2cccc([N+](=O)[O-])c21)C(N)=O` (some centres undefined): the GI50 was 0.0403 µM; the TGI was 0.28 µM and 0.0302 µM. `COC1/C(=C\c2ccccc2I)c2ccccc2N1C(C)=O` (centres undefined) had a TGI of 47.1 µM. Consider `COc1ccc(C2C=C(c3ccc(OC)c(OC)c3)N=C3SC=CN32)c(Br)c1` (centres undefined), for which the GI50 is 10.7 µM and the TGI was 25.1 µM.

`Cc1nn2c(/C=N/N=C(N)N)c(-c3ccc(Cl)c([N+](=O)[O-])c3)nc2s1`: the GI50 is 2.15 µM and the TGI came out at 3.91 µM. Compound `CNC(=S)/C(C#N)=C(\N)N1CCN(C)CC1` had a TGI of over 100 µM.

For `COc1ccc(C(=O)c2sc3nc4c(cc3c2N)CCCC4)cc1OC`, the GI50 was 6.35 µM and the TGI was determined as 21.6 µM. As to `CCSc1n/c(=C\c2ccc(N(C)C)cc2)c2nnnn12`, the TGI was over 100 µM. `CCn1c2ccccc2c2cc(N=Nc3ccc(C#N)cc3)ccc21` yielded a TGI of over 100 µM. On the same count and under the same terms, the figure for `COC(=O)[C@H](C)N(C)C(=O)C(CC(N)=O)N(C)C(=O)[C@H](Cc1ccccc1)N(C)C(=O)[C@@H]1CCCN1C(=O)[C@H](C(C)C)N(C)C(=O)C(C(C)C)N(C)C(=O)[C@@H](NC(=O)OC(C)(C)C)C(C)C` (some centres undefined) (Boc-V[ξNMeV][NMeV]P[NMeF][ξNMeN][NMeA]-OMe) is over 75 µM. As to `O=S1OC[C@H](CCCl)O1` (some centres undefined), the TGI was over 100 µM. In turn, `O=C1OC2C=CCC1C2` (centres undefined) returned a TGI of over 100 µM. For `COC(=O)/C=C1/SC(=Nc2ccc(F)cc2)N(CCc2c[nH]c3ccc(O)cc23)C1=O`, the GI50 was 12.2 µM and the TGI was over 100 µM. `C=C(C(=O)OC)N1C(=O)CC(C)C1=O` (centres undefined) had a TGI of over 100 µM.

Consider `c1ccc2nc(N/N=C3\CCCCC3C3CCCCC3)ccc2c1` (centres undefined), for which the GI50 was 8.42 µM and the TGI was determined as 30 µM. Take `CC(=O)/C=c1\[nH]/c(=C\C=C\c2ccccc2)c(=O)n1/C=C1\C(=O)Oc2ccccc2C1=O`: the TGI is over 100 µM. `CC1=CC2C(=O)N(c3ccccc3)C(=O)C2CC1n1[nH]c(=O)n(Cc2ccccc2)c1=O` (centres undefined) returned a TGI of over 100 µM. Take `CC(=O)N1CCC(Nc2ncc3cc(Oc4ccc(F)cc4F)c(=O)n(C)c3n2)CC1`: the GI50 is over 25 µM and the TGI was over 25 µM.

`CN1CCCC2[C@@H]3CCC4=C(O)C(=O)CC[C@]4(C)C3CC[C@@]21C` (some centres undefined) returned a TGI of over 100 µM.

Regarding `O=c1ncc(I)cn1C1CC(O)C(CO)O1` (centres undefined), the GI50 is 1490 µM and the TGI is over 3250 µM. In the same order, the values of `[2H]c1nc(C)nc([2H])c1-c1cc(NC[C@@H](C)c2cccc3c(C(=O)NC)ccnc23)ncn1` are over 100 µM and over 100 µM. On to `COc1cc(C(=O)N(C)N(C)C)cc(OC)c1OC`, for which the TGI was over 10 µM. Turning to `COC1=CC(=O)c2c(cc(COP(N)(=O)N(CCBr)CCBr)n2C)C1=O` (centres undefined), the TGI stood at 4.73 µM. With `CCc1ccc(C(=O)/C=C/C23c4ccccc4C(c4ccccc42)C2C(=O)NC(=O)C23)cc1` (centres undefined), the GI50 was 1.67 µM and the TGI was 3.58 µM. Consider `C=CCCCCNC(=O)C[C@@H]1C2=C(CC[C@H]1O[Si](C)(C)C(C)(C)C)N1C(=O)CCC/C=C\C1C2` (some centres undefined), for which the TGI stood at 29.8 µM. Same read-out and setting: to `Cc1ccccc1NC(=O)/C(=N/NC(=O)CC#N)C1C(=O)N(c2ccccc2)N=C1N` (centres undefined) belongs over 100 µM.

Turning to `CC(=O)Oc1cc(C(C)C)c(OCCN(C)C)cc1C`, the GI50 was over 100 µM and the TGI is over 100 µM. Regarding `O=c1c2ccccc2n2c(-c3ccc(O)cc3)nnc2n1-c1ccccc1`, the TGI was found to be 49.5 µM.

The compound `O=NN1CCNC1Cc1ccccc1` (centres undefined) displayed a TGI of over 100 µM. With `O=C1/C=C/[C@@H](O)[C@@H]2C[C@@H](O)C[C@H]2/C=C/CCC[C@H](CCc2ccccc2)O1`, the GI50 is 0.0268 µM and the TGI came to 68.7 µM.

As to `Cc1ccc(CN(C)c2ccc(CO)c(Cl)c2)cc1`, the GI50 is 9.49 µM and the TGI is 59.7 µM. With `Cc1[nH]n(-c2ncc(C(=O)O)c(=O)[nH]2)c(=O)c1CCO`, the TGI is over 100 µM.

For `CC(C)N(CCCNC(=O)Nc1ccc(C(C)(C)C)cc1)C[C@H]1O[C@@H](n2ccc3c(N)ncnc32)[C@H](O)[C@@H]1O`, the GI50 is over 100 µM and the TGI was over 100 µM. With `CC(=O)OCC(OC(C)=O)C(OC(C)=O)C(OC(C)=O)C(=O)CNn1c(-c2ccc(C)cc2)nc2ccccc2c1=O` (centres undefined), the TGI is over 100 µM.

With `Cc1nc2c(=O)[nH]ncc2[nH]1`, the TGI is over 100 µM. The compound `COC(=O)C(=O)C(C(=O)C(=O)Nc1ccc(OC)cc1[N+](=O)[O-])c1nc2ccc([N+](=O)[O-])cc2[nH]c1=O` (centres undefined) came in with a TGI of over 100 µM.

`CC(=O)Nc1ccc(-c2nnc(SCC(=O)Nc3ccccc3)o2)cc1` had a TGI of over 100 µM. Take `Cc1ccc(S(=O)(=O)C(CC(NC=O)S(=O)(=O)c2ccc(C)cc2)NC=O)cc1` (centres undefined): the TGI was over 100 µM. For `COc1ccc(-c2ccc(-c3ccc(C(=N)N)c(F)c3)s2)cc1`, the GI50 is 0.847 µM and the TGI amounted to 2.35 µM. As for `O=c1c(=O)c2cscc2c1=O`, the TGI was over 25 µM.

For `C=C(CCOC)CCC1CCCCC/C1=N\N(C)C` (centres undefined), the TGI was over 100 µM. Regarding `O=C(Nc1ccc(Cl)cc1)Nc1ccc(Cl)c(C(F)(F)F)c1`, the GI50 is 3.47 µM and the TGI came out at 14.5 µM. In turn, `C[C@@H](O)CCC(=O)c1ccoc1` registered a TGI of over 100 µM. With `CC(=O)OC12c3ccccc3C1CCCC21OCCCO1` (centres undefined), the TGI is over 100 µM. `COC(=O)C(Cc1ccc(OC)cc1O)NC(=O)OC(C)(C)C` (centres undefined) came in with a TGI of over 100 µM. In the case of `CC(=O)Nc1ccc(C2C(C(=O)Nc3ccccc3)=C(C)NC(C)=C2C(=O)Nc2ccccc2)cc1`, the TGI is over 100 µM. The compound `CCC1OC(=O)CC(O)C(C)C(OC2OC(C)C(O)C(N(C)C)C2O)C(CC=O)CC(C)C(=O)/C=C/C2(C)OC2C1C` (centres undefined) returned a TGI of 66.8 µM.

Compound `CCOC(CNc1nn2c(C)nnc2s1)OCC` returned a TGI of over 100 µM. Turning to `Clc1ccc(Cn2c(CN3CCCC3)nc3ccccc32)cc1`, the GI50 is 39.7 µM and the TGI is over 100 µM.

Regarding `O=C(CN(/C=C/C(=O)C(F)(F)F)c1ccc(Cl)cc1)c1ccc(F)cc1`, the GI50 is 13.1 µM and the TGI was 46.5 µM. In the case of `C[CH2][Sn]([CH2]C)([O]C(=O)c1c(F)cccc1F)[O][Sn]([CH2]C)([CH2]C)[O]C(=O)c1c(F)cccc1F`, the GI50 was 19.8 µM and the TGI stood at 45.1 µM. `CCCCC(=O)OC[n+]1ccc(-c2c(COC(=O)NC(C)C)c(COC(=O)NC(C)C)c3n2CCC3)cc1` showed a TGI of over 100 µM. Compound `C/C(CC(=O)Nc1ccc(Cl)c(Cl)c1)=N/NC(=O)C[N+](C)(C)C` came in with a TGI of over 100 µM. Consider `O=C1C(c2ccc([N+](=O)[O-])cc2)=C(Cl)C(=O)c2c(O)cccc21`, for which the TGI is over 85.2 µM. Take `C=C1C(O)C2C(=C(CCC3CC3)C13CC3)C(=O)C(C)(C)C2O` (centres undefined): the GI50 was 43.5 µM and the TGI is over 100 µM. For the compound `NC(Cc1ccccc1)P(=O)(O)O` (centres undefined), the TGI was over 100 µM. The same measure, in the same setting: to `CCNc1cnc2c(n1)c(=O)n(C)c(=O)n2C` belongs over 100 µM. On to `c1ccc(-c2nnc(CCCCCCCCc3nnc(-c4ccccc4)o3)o2)cc1`, for which the TGI is over 100 µM. On to `COc1ccc2c(c1OC)-c1c(c3ccc([N+](=O)[O-])cc3c(=O)n1CCCN)C2=O`, for which the GI50 is 4.93 µM and the TGI was 11.8 µM. Take `N#CNC(=NCCO)NCCO`: the TGI is over 100 µM. `CCCCCCN1CCc2c(C)c(C#N)c3nc4ccccc4n3c21` displayed a TGI of over 100 µM. In the case of `COc1cc2c3c(n(CCCNC4=NCCS4)c(=O)c2cc1OC)-c1cc2c(cc1C3=O)OCO2`, the GI50 is 0.978 µM and the TGI came out at 3.79 µM. With `N/C(=N\N=C/c1c2ccccc2c(Cl)c2ccccc12)NO`, the GI50 is 1.27 µM; the TGI was 15.2 µM and 15.3 µM. With `O=C(NC(O)(C(F)(F)F)C(F)(F)F)c1ccccc1`, the TGI is over 100 µM. On the same count and under the same terms, to `Nn1c(SCC(=O)O)nc2ccccc2c1=O` belongs over 100 µM. On to `COc1ccc(C(=S)N(C)NC(=O)CC(=O)NN(C)C(=S)c2ccc(OC)cc2)cc1`, for which the GI50 is over 100 µM and the TGI was over 100 µM. `CCC1=C(C(C)=O)[C@@H]2CCCCC(C(=O)OC)[C@@H]2C1=O` (some centres undefined): the TGI was over 100 µM. `CCCCOC(=O)CC(CC(=O)OCCCC)(OC(C)=O)C(=O)OCCCC` gave a TGI of over 200 µM. `N#CNCC(COCc1ccccc1)c1ccccc1` (centres undefined) registered a TGI of over 100 µM.

For `Cc1oc2c(C(=O)N/N=C\c3ccc(O)cc3O)c[nH]c2c1C`, the GI50 is 0.816 µM and the TGI is over 49.4 µM.

In the case of `C[CH2][Pb]([CH2]C)([CH2]C)[O]C(=O)COC`, the GI50 was 2.1 µM and the TGI is 6.51 µM.

For `CCC1=CCN(c2ccc(C)cc2)OC1c1ccc(OC)cc1` (centres undefined), the TGI was over 100 µM.

For the compound `NS(=O)(=O)c1cc2c(cc1Cl)NC(/C(=N/NC(=O)c1ccncc1)C1C(=O)NC(=O)NC1=O)=NS2(=O)=O`, the TGI is over 100 µM. For the compound `COc1ccc(C(=O)/C=C/c2ccc(Oc3cc(C(=O)/C=C/c4ccc(O)cc4)c(O)cc3OC)cc2)c(O)c1`, the TGI is over 100 µM. With `Clc1ccccc1/C=C/c1ccnc2ccccc12`, the TGI was 29.7 µM. `O=c1ccccc(-c2ccc(Br)cc2)c1O`: the GI50 was 0.615 µM and the TGI was over 100 µM. In the same order, the values of `CCOC(=O)/C(C#N)=C\C=C(\Sc1nc2ccccc2s1)c1ccc(Cl)cc1` are 86 µM and over 100 µM. Regarding `O=c1oc2ccc(Cl)cc2c2ccccc12`, the TGI was over 100 µM.

`N#CC(C#N)=Cc1c[nH]c(=O)[nH]c1=O` displayed a TGI of over 100 µM.
